Source: the supplement of paper PMC4967469
Lines with a small IC50 respond at low doses; fits outside the tested doses are given as limits. AUC is the area under the same curve over the 256-fold range up to the top dose, as a fraction; it is 1 without any effect and falls as sensitivity rises. For part of these data: An inferred top dose comes from the curve model; the source does not state it. For part of these data: Drugs with an entry number were screened twice under separate entries, and the two screens often disagree.

Key:
Experiment in all cases: Viability of human cancer cell lines after 72 h of drug (GDSC screen)
[1] = compound: COC(=O)[C@H](CCSC)NC(=O)c1ccc(NC[C@@H](N)CS)cc1-c1ccccc1 [FTI-277]; conditions: top dose 1.024 µM; top dose inferred
Procedure: (§1)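 Human cancer cell lines in 384-well plates, medium with 10% serum, drug for 72 h over a 256-fold dose range (nine 2-fold or five 4-fold steps up to the top dose). Adherent lines were fixed and stained with the nucleic acid dye Syto60, suspension lines read with resazurin; signal relative to control wells, capped at 0 and 100%. One two-parameter sigmoid per drug and line, fitted in a mixed model over all curves with the slope shared within a line.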

[2] = compound: CC(=O)O[C@@]12CO[C@@H]1C[C@H](O)[C@@]1(C)C(=O)[C@H](O)C3=C(C)[C@@H](OC(=O)[C@H](O)[C@@H](NC(=O)OC(C)(C)C)c4ccccc4)C[C@@](O)([C@@H](OC(=O)c4ccccc4)[C@H]21)C3(C)C [Docetaxel]; conditions: top dose 0.0125 µM
Procedure: as §1

[3] = compound: O=C(/C=C/c1cccc(S(=O)(=O)Nc2ccccc2)c1)NO [Belinostat]; conditions: top dose 20 µM; top dose inferred
Procedure: as §1

[4] = compound: C[C@]1(O)C[C@@H](c2nc(-c3ccc4ccc(-c5ccccc5)nc4c3)c3c(N)nccn32)C1 [OSI-906]; conditions: top dose 2.56 µM; top dose inferred
Procedure: as §1

[5] = compound: CCOc1nc(NC(=O)Cc2cc(OC)ccc2OC)cc(N)c1C#N [JNK Inhibitor VIII]; conditions: top dose 10 µM; top dose inferred
Procedure: as §1

[6] = compound: CC1(C)CNc2cc(NC(=O)c3cccnc3NCc3ccncc3)ccc21 [AMG-706]; conditions: top dose 2 µM; top dose inferred
Procedure: as §1

[7] = compound: Cc1sc2c(c1C)C(c1ccc(Cl)cc1)=N[C@@H](CC(=O)OC(C)(C)C)c1nnc(C)n1-2 [JQ1]
Procedure: as §1

[8] = compound: CC1=C2C[C@H]3[C@@H](CC=C4C[C@@H](O)CC[C@@]43C)[C@@H]2CC[C@]12O[C@@H]1C[C@H](C)CN[C@H]1[C@H]2C [Cyclopamine]; conditions: top dose 16 µM; top dose inferred
Procedure: as §1

[9] = compound: OCCCNc1cc(-c2ccnc(Nc3cccc(Cl)c3)n2)ccn1 [CGP-60474]; conditions: top dose 0.256 µM; top dose inferred
Procedure: as §1

[10] = compound: c1ccc2c(CCNc3ccc(Nc4ccncc4)cc3)c[nH]c2c1 [JNJ-26854165]; conditions: top dose 10 µM
Procedure: as §1

[11] = compound: CN1CCN(c2ccc([N+](=O)[O-])c3no[n+]([O-])c23)CC1 [NSC-207895]; conditions: top dose 20 µM; top dose inferred
Procedure: as §1

[12] = compound: COCC[n+]1c2c(n(Cc3cnccn3)c1C)C(=O)c1ccccc1C2=O [YM155]; conditions: top dose 5.12 µM
Procedure: as §1

[13] = compound: Cc1ccc(C(=O)N(CCCN)[C@@H](c2nc3cc(Cl)ccc3c(=O)n2Cc2ccccc2)C(C)C)cc1 [SB-715992]; conditions: top dose 0.128 µM; top dose inferred
Procedure: as §1

[14] = top dose 1 µM, screen: GDSC drug entry 1218, top dose inferred
[15] = top dose 2.56 µM, screen: GDSC drug entry 163

| Cell Line | AUC [1] | IC50 [1] [nM] | AUC [2] | IC50 [2] [nM] | AUC [3] | IC50 [3] [nM] | AUC [4] | IC50 [4] [nM] | AUC [5] | IC50 [5] [nM] | AUC [6] | IC50 [6] [nM] | AUC [7, 14] | IC50 [7, 14] [nM] | AUC [7, 15] | IC50 [7, 15] [nM] | AUC [8] | IC50 [8] [nM] | AUC [9] | IC50 [9] [nM] | AUC [10] | IC50 [10] [nM] | AUC [11] | IC50 [11] [nM] | AUC [12] | IC50 [12] [nM] | AUC [13] | IC50 [13] [nM] |
| --- | --- | --- | --- | --- | --- | --- | --- | --- | --- | --- | --- | --- | --- | --- | --- | --- | --- | --- | --- | --- | --- | --- | --- | --- | --- | --- | --- | --- |
| NCI-H2141 (small cell lung carcinoma, suspension) | 0.991 | > 1020 | 0.971 | > 12.5 | 0.575 | 1990 | 0.883 | > 2560 | 0.991 | > 10000 | 0.99 | > 2000 | 0.99 | > 1000 | 0.941 | > 2560 | 0.991 | > 16000 | 0.788 | 109 | 0.988 | > 10000 | 0.921 | > 20000 | 0.076 | < 20 | 0.87 | 113 |
| NEC8 (testis, adherent) | 0.986 | > 1020 | 0.489 | 0.734 | 0.118 | 99.9 | 0.957 | > 2560 | 0.932 | > 10000 | 0.853 | 1210 | 0.989 | > 1000 | 0.554 | 220 | 0.965 | > 16000 | 0.74 | 68 | 0.823 | 4750 | 0.491 | 1190 | 0.018 | < 20 | 0.972 | > 128 |
| NU-DUL-1 (B-cell lymphoma, suspension) | 0.992 | > 1020 | 0.722 | 2.86 | 0.106 | 99 | 0.985 | > 2560 | 0.993 | > 10000 | 0.993 | > 2000 | 0.992 | > 1000 | 0.591 | 270 | 0.959 | > 16000 | 0.705 | 52.6 | 0.794 | 3630 | 0.889 | 15100 | 0.014 | < 20 | 0.573 | 12.2 |
| OMC-1 (cervix, adherent) | 0.975 | > 1020 | 0.854 | 10.6 | 0.471 | 1040 | 0.986 | > 2560 | 0.988 | > 10000 | 0.986 | > 2000 | 0.925 | > 1000 | 0.863 | 2370 | 0.988 | > 16000 | 0.767 | 99.6 | 0.932 | > 10000 | 0.951 | > 20000 | 0.074 | < 20 | 0.935 | > 128 |
| OS-RC-2 (kidney, adherent) | 0.961 | > 1020 | 0.918 | > 12.5 | 0.548 | 1790 | 0.948 | > 2560 | 0.968 | > 10000 | 0.932 | > 2000 | 0.974 | > 1000 | 0.678 | 635 | 0.774 | 9350 | 0.653 | 51.5 | 0.828 | > 10000 | 0.943 | > 20000 | 0.049 | < 20 | 0.937 | > 128 |
| P31-FUJ (acute myeloid leukaemia, suspension) | 0.996 | > 1020 | 0.982 | > 12.5 | 0.484 | 1140 | 0.996 | > 2560 | 0.993 | > 10000 | 0.996 | > 2000 | 0.816 | 396 | 0.996 | > 2560 | 0.994 | > 16000 | 0.981 | > 256 | 0.996 | > 10000 | 0.992 | > 20000 | 0.078 | 22.1 | 0.986 | > 128 |
| PF-382 (T-cell lymphoblastic leukaemia, suspension) | 0.984 | > 1020 | 0.978 | > 12.5 | 0.158 | 135 | 0.984 | > 2560 | 0.981 | > 10000 | 0.98 | > 2000 | 0.99 | > 1000 | 0.596 | 283 | 0.938 | > 16000 | 0.781 | 92.2 | 0.985 | > 10000 | 0.885 | 17100 | 0.029 | < 20 | 0.5 | 8 |
| PSN1 (pancreas, adherent) | 0.985 | > 1020 | 0.501 | 0.788 | 0.178 | 167 | 0.892 | 2170 | 0.959 | > 10000 | 0.974 | > 2000 | 0.991 | > 1000 | 0.991 | > 2560 | 0.991 | > 16000 | 0.505 | 16.5 | 0.935 | > 10000 | 0.785 | 7130 | 0.016 | < 20 | 0.764 | 39.6 |
| QIMR-WIL (acute myeloid leukaemia, suspension) | 0.925 | > 1020 | 0.862 | 10.2 | 0.161 | 119 | 0.986 | > 2560 | 0.987 | > 10000 | 0.987 | > 2000 | 0.862 | 815 | 0.7 | 572 | 0.964 | > 16000 | 0.679 | 49.8 | 0.885 | > 10000 | 0.76 | 6840 | 0.029 | < 20 | 0.614 | 16.3 |
